# Laboratory results: paper PMC6919601, “Identification of Plasmodium dipeptidyl aminopeptidase allosteric inhibitors by high throughput screening” (PLoS ONE, 2019)
# About 230 (0.21%) of roughly 110,000 compounds showed an effect of 50% or more. The list shows a part of the results.
# Target: DPAP1 (Plasmodium falciparum, UniProt Q8IIJ9)
# Experiment: primary screen, percent inhibition; read by cleavage of a fluorogenic dipeptide substrate; higher = more effect of the substance
# Design: species or system P. falciparum D10 trophozoite lysates; single well
# 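Also: 30 min substrate incubation versus DMSO and 10 µM JCP410 controls.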
# Sequence of DPAP1 (Q8IIJ9 whole entry, looked up): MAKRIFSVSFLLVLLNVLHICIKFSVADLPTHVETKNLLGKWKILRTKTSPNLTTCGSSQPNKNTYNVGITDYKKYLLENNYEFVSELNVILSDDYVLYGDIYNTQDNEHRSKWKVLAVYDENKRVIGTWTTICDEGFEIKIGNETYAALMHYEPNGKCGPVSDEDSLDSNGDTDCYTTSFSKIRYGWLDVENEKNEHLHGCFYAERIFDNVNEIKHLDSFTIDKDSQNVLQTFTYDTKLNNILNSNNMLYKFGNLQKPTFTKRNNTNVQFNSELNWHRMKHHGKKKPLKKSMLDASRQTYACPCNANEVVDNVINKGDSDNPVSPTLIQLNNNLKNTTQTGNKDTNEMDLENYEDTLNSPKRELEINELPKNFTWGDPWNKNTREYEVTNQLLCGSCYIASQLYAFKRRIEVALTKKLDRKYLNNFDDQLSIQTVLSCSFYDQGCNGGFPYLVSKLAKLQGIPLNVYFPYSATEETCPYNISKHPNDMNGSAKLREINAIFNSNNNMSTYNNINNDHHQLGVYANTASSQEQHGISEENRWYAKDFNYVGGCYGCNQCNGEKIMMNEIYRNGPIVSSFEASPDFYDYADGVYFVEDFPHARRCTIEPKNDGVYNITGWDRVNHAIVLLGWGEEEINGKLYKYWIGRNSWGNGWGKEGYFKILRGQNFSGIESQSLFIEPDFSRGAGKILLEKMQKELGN
row,Structure (SMILES),% Inhibition @ 10 uM
1,Cc1cccc(C)c1OCC(=O)Nc1ccc(C(=O)O)cc1,6.51%
2,Cc1cc(/C=C2/C(=N)N3C(=NC2=O)SN=C3S(=O)(=O)C(C)C)c(C)n1-c1ccccc1,-3.39%
3,COc1ccc(-c2nc(N3CCN(C)CC3)nc(O)c2C#N)cc1,1.9%
4,CCOc1ccc(CC(=O)N2N=C(C(F)F)CC2(O)C(F)F)cc1 (stereo not drawn),2.92%
5,O=C(CSc1nc2c(c(=O)n1Cc1ccccc1)SCC2)N1CCCC1,2.19%
6,CCO/C(O)=C1\C(C)=NC2=C(C(=O)c3ccccc32)C1c1ccccc1Br (stereo not drawn),-0.169%
7,CCCn1c(=O)c2sccc2n2c(CCCC(=O)NCCC3=CCCCC3)nnc12,-6.26%
8,CCOC(=O)c1nnn(-c2ccc(C)cc2)c1C(=O)OCC,-1.58%
9,COc1ccc(S(=O)(=O)N2CCCCC2C)cc1 (stereo not drawn),-0.833%
10,CC12CN3CC(c4ccccc4)(CN(C1)C3(C)C)C2=O,-4.91%
11,CC(C)C[C@H](NC(=O)OCc1ccccc1)C(=O)NC1(C#N)CCN(CC(F)(F)F)CC1,1.35%
12,Cc1nnc(C)n1/N=C/C=C/c1ccccc1,-0.339%
13,COc1ccc(OC)c(C2CC(=O)C3=C(C2)NC(=O)CC3c2cccc(C)c2)c1 (stereo not drawn),-2.87%
14,Cc1ccccc1OCCCCN1CCCC1,0.98%
15,COc1cc(OC)cc(C(=O)N2c3ccccc3CC2C)c1 (stereo not drawn),-5.7%
16,CCOC(=O)C1=C(CN2CCC(C(N)=O)CC2)NC(=O)NC1c1ccc(F)cc1 (stereo not drawn),2.58%
17,OC1(C#Cc2ccccc2)CCN(Cc2ccccc2)CC1,4.74%
18,Clc1ccccc1N1CCN(CCCc2ccccc2)CC1,-6.82%
19,Cc1nn(C(C)C(=O)NCCC2=CCCCC2)c(=O)c2nn(-c3ccccc3)c(C)c12 (stereo not drawn),1.11%
20,COc1ccc(-c2cc3nc(C)c(Cc4ccccc4)c(O)n3n2)cc1,-1.92%
21,CC(=O)N1CC=C2C(C#N)=C(N)C(C#N)(C#N)C(c3ccc(F)cc3F)C2C1 (stereo not drawn),-0.143%
22,COc1ccc(S(=O)(=O)N(CC(=O)N2CCCCCC2)c2ccc(C)cc2)cc1OC,-0.48%
23,O=C(O)C1CCN(S(=O)(=O)Cc2ccccc2)CC1,3.66%
24,CCN1CCN(CCCNC(=O)Cc2ccc(-n3c(-c4ccccc4)nc4cccnc43)cc2)CC1,-4.21%
25,Cc1ccccc1-c1nc2s/c(=C\c3ccccc3)c(=O)n2n1,0.561%

row,Structure (SMILES),% Inhibition @ 10 uM
1,Cc1ccc2c(c1)cc1c(=O)n(CC(=O)NCC3CCCO3)nc(C)n12 (stereo not drawn),4.84%
2,CCn1c2ccccc2c2cc(CNc3ccccc3F)ccc21,6.06%
3,Cn1c(S)nnc1CSc1nc2ccccc2s1,-6.69%
4,c1cnc(N2CCN(Cc3ccoc3)CC2)nc1,-6.21%
5,CC(C)(C)OC(=O)N1CC2CC(C1)c1c(Br)cc(Br)c(=O)n1C2 (stereo not drawn),-3.21%
6,Cn1c2c(c(=O)n(C)c1=O)C(c1ccc(C(F)(F)F)cc1)C1=C(O)c3ccccc3C1=N2 (stereo not drawn),5.28%
7,NS(=O)(=O)c1ccc(-n2ncc3c(O)nc(SCC(=O)NC4CCCCC4)nc32)cc1,3.61%
8,COc1ccc(CN2CCC(O)CC2)c(C)c1C,-7.49%
9,CC1CCN(CCNc2ncnc3onc(-c4ccc(F)cc4)c23)CC1,3.08%
10,CCCc1cc(=O)n2nc(N3CCC(C(=O)NC(C)C45CC6CC(CC(C6)C4)C5)CC3)sc2n1 (stereo not drawn),-3.79%
11,Cc1nc2cc(/N=C/c3c(C)nn(-c4ccc(F)cc4)c3O)ccc2[nH]1,4.61%
12,CSc1ccc(C2C(C#N)=C(N)Oc3cc(C)nc(O)c32)cc1 (stereo not drawn),-1.11%
13,Cc1nc2c(-c3ccc(F)cc3)c(C)nn2c(C)c1CC(=O)NCCCc1ccccc1,4.14%
14,Cc1nc2c(C(=O)NCCN(C)Cc3ccccc3)cnn2c(C)c1Cc1ccccc1,-2.26%
15,CC(=O)N1CCN(c2ccc(NC(=O)COc3ccc(Cl)cc3)cc2)CC1,-5.23%
16,CCOc1ccccc1NC(=O)C1CC(=O)N(c2ccc(OCc3ccc(Cl)cc3)cc2)C1 (stereo not drawn),-2.6%
17,CCCCNc1oc(/C=C/c2cccs2)nc1C#N,-3.49%
18,O=C(Nc1ccccc1)c1ccccc1NC(=O)C1CC1,-0.173%
19,CC(=O)c1cccc(NC(=O)c2cc(C)c(C)o2)c1,5.16%
20,Cn1c(=O)c(C(=O)Nc2nc(C34CC5CC(CC(C5)C3)C4)cs2)c(O)c2ccccc21,20.6%
21,Nc1cc(N)nc(SCc2ccccc2)n1,-0.216%
22,CCOc1ccc(C2NC(C(=O)O)CS2)cc1OC (stereo not drawn),-0.105%
23,CCOC(=O)N1CCC(N2Cc3cccc(C(=O)N4CCC(Cc5ccccc5)CC4)c3C2=O)CC1,2.9%
24,Cc1ccc2c(CNC3CCCCCC3)c(C(=O)O)n(Cc3ccc(F)cc3Cl)c2c1,-5.63%
25,CCCCC(=O)Nc1nc2ccc(OCC)cc2s1,-4.68%

row,Structure (SMILES),% Inhibition @ 10 uM
1,Cc1c(CC(=O)N2CCOCC2)c(=O)oc2c(C)c(O)ccc12,-4.39%
2,Cn1cccc1Cc1nnc(SCC(=O)NCc2ccco2)n1-c1ccc(F)cc1,-2.19%
3,COc1cc(CNC(=O)Cn2nc(C(F)(F)F)cc2C2CC2)cc(OC)c1,-1.04%
4,CN(C)c1ccnc(NCc2ccccc2)c1C#N,3.01%
5,O=C1c2ccccc2C(Nc2cccnc2)N1c1ccccn1 (stereo not drawn),-2.83%
6,CC(NC(=O)CC/N=c1/c(N2CCCC2)c(O)c1=O)c1ccccc1 (stereo not drawn),1.68%
7,CC(=O)N1CCC2(CC1)C(C#N)=C(N)Oc1[nH]nc(C)c12,2.48%
8,COC(=O)C1=C(N)Oc2cc(C)n(Cc3cccnc3)c(=O)c2C1c1ccc(OC)c(OC)c1OC (stereo not drawn),-1.11%
9,CCc1c(C)sc(NC(=O)COCc2cc(-c3cccs3)on2)c1C#N,4.36%
10,Cc1[nH]nc2c1C1(C(=O)Nc3ccccc31)C(C#N)=C(N)O2 (stereo not drawn),4.3%
11,Cc1ccccc1N(C)S(=O)(=O)c1ccc(Cl)cc1,0.345%
12,Cn1c(C(=O)O)c(CNCc2ccccc2Cl)c2ccccc21,-2.95%
13,Cc1ccccc1OCCSc1nc(O)c2ccccc2n1,1.62%
14,O=C(CCc1nc2ccccc2[nH]1)N1CCC(Cc2ccccc2)CC1,-9.95%
15,c1ccc2c(CSc3nc4ccccc4o3)cccc2c1,-2.48%
16,CCOC(=O)c1cc(-c2ccccc2)n(CC(=O)N2CCN(C3CCCCC3)CC2)c1C,-7.66%
17,COc1ccc(S(=O)(=O)Nc2ccc(Cl)cc2Cl)cc1,-5.11%
18,Cc1ccc(-c2noc(CCC(=O)N3CCCCC3C)n2)cc1 (stereo not drawn),2.42%
19,O=c1c(/C=N/C2CCS(=O)(=O)C2)c(N2CCOCC2)nc2ccccn12 (stereo not drawn),5.94%
20,O=C(O)CCN1C2=C(C(=O)CCC2)C(c2ccccc2OCc2cccc(F)c2)C2=C1CCCC2=O,-3.13%
21,COc1ccc(C2OCC3(CO2)SC2=NCN(C)CN2C3=O)cc1 (stereo not drawn),4.46%
22,Cc1ccnc(NC(=O)C2CCCN(c3ncnc4onc(C)c34)C2)c1 (stereo not drawn),1.67%
23,CC1(c2ccc(Br)cc2[N+](=O)[O-])CC1,-6.11%
24,O=C(Cn1c(=O)sc2ccccc21)OC1CCCC1,-6.24%
25,Cc1cc(-c2cc(C(=O)O)c3ccccc3n2)c(C)s1,-2.87%

row,Structure (SMILES),% Inhibition @ 10 uM
1,CCCc1noc(-c2ccc(OC)c(OC)c2)n1,-2.27%
2,Cc1cc(C)nc(SCc2nnc(SCC(N)=O)n2-c2ccc(F)cc2)n1,-2.45%
3,CCOCCCN1C(=O)CN(C2CCCCC2)C(=O)C1c1ccc(OC)c(OC)c1 (stereo not drawn),-2.14%
4,CCS(=O)(=O)N1CCC(C(=O)N2CCC3(CC2)OCCO3)CC1,3.79%
5,O=C(Cn1ncc2c3ccccc3n(Cc3ccccc3)c2c1=O)N1CCN(c2ccccn2)CC1,4.95%
6,COc1ccccc1NS(=O)(=O)CC(C)C,-2.35%
7,Cc1ccc(Oc2ccc(NC(=O)CCCC(=O)O)cc2)cc1,-4.68%
8,Cc1ccc(-n2c(C)cc(/C=C3\SC(=O)NC3=O)c2C)cc1,-1.07%
9,COc1ccc(CNC(=O)C(c2ccccc2)N2Cc3ccccc3C2=O)cc1 (stereo not drawn),-2.15%
10,CC(C)OC(=O)c1c(NC(=O)COc2ccc(Cl)cc2)sc2c1CCCC2,9.77%
11,CCOc1ccc(-n2c(C)c(C(C)=O)c3cc(O)ccc32)cc1,-5.28%
12,CSc1ncc(Cl)c(C(=O)Nc2c(C(=O)c3ccccc3)oc3ccccc23)n1,0.569%
13,C/C(=N\CCCn1ccnc1)C1=C(O)c2ccccc2C1=O,0.685%
14,CCc1c2c(nc3sc(C(=O)Nc4ccccc4F)c(N)c13)CC(C)(C)CC2=O,3.74%
15,O=C(COc1ccccc1F)Nc1ccc(S(=O)(=O)Nc2nccs2)cc1,-3.25%
16,CC(C)CC(NC(=O)COc1ccccc1)C(=O)O (stereo not drawn),-3.21%
17,O=C(Nc1cccc(O)c1)C(Cc1ccc([N+](=O)[O-])cc1)N1C(=O)c2ccccc2C1=O (stereo not drawn),9.92%
18,Cc1c2cnn(CC(=O)N3CC(C)CC(C)C3)c(=O)c2c(C)n1Cc1ccc(F)cc1 (stereo not drawn),1.22%
19,CCCCCNc1nc(S)nc2ccccc12,17.7%
20,O=C(CSc1nc2ccccc2c2nc(-c3ccccc3)nn12)NCc1ccccc1,-4.19%
21,N#Cc1ccc(N2C(=O)C3C4c5ccccc5C(c5ccccc54)C3C2=O)cc1 (stereo not drawn),-6.67%
22,Cn1cccc1/C=C1\CS/C(=C\c2cccn2C)C1=O,6.82%
23,CCOC(=O)c1cnc2ccc(C(=O)OC)cc2c1NCCCO,-0.85%
24,CC1CCN(C(=O)C2COc3ccccc3O2)CC1 (stereo not drawn),1.27%
